Where “and” joins values, the source holds several entries; their conditions need not be identical. Equal values may be shown once.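 Exposure lasted 48 hours, with cells grown in 96-well plates and compounds tested at five concentrations. Here, GI50 denotes the concentration required for 50% inhibition of growth. TGI marks complete inhibition of growth.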
The compounds below were run on NCI-H322M lung (assay: NCI-60 cell line screen, 48 h).

Compound | TGI | GI50 [µM]
Clc1ccccc1CN1COc2c(ccc3cccnc23)C1 | 14.9 µM | –
CN(C)C(=S)/N=c1\ssc(=S)n1C | > 100 µM | –
COc1ccc(/C=C2\CCC(CCN(C)C)(C3=CCCC3)C2=O)cc1 (stereo not given) | 35.5 µM | –
Cc1ccc(-c2c(-c3ccccc3)[nH]c(C)c2C(=O)ONC(=O)c2ccccc2)cc1 | 23.5 µM | –
O=C1C(CO)=C[C@H](O)[C@H]2O[C@@H]12 | 327 µM | –
CCC1=CCN(c2cc(C)ccn2)OC1c1ccccc1 (stereo not given) | > 100 µM | –
CCOc1ccc(N=C2NC(=O)C(CC(=O)Nc3ccccc3[N+](=O)[O-])S2)cc1 (stereo not given) | > 100 µM | –
CC(C)(C)NCC(O)COc1c(Br)c(Br)c(Br)c2c1OC(C)(C)C2 (stereo not given) | 3.19 µM | 1.79
CN(Cc1ccc(F)cc1)c1ccc(CO)c(Cl)c1 | > 66.5 µM | 13.8
CO[C@H]1/C=C/O[C@@]2(C)Oc3c(C)c(O)c4c(O)c(c(/C=N/N5CCN(C)CC5)c(O)c4c3C2=O)NC(=O)/C(C)=C\C=C\[C@H](C)[C@H](O)[C@@H](C)[C@@H](O)[C@@H](C)[C@H](OC(C)=O)[C@@H]1C | > 100 µM | –
COc1ccc(/C=C2\C[C@H]3[C@@H]4CCC5=C/C(=N/O)CC[C@]5(C)[C@H]4CC[C@]3(C)\C2=N\O)cc1 | 81.4 µM | –
COC(=O)CCC1(CCC(=O)OC)CCCCCCC(CCC(=O)OC)(CCC(=O)OC)C(=O)C1=O | > 100 µM | –
CC(=O)c1ccc2c(c1)N(CCCN1CCN(CCO)CC1)c1ccccc1S2 | 7.99 µM | 2.77
COc1ccccc1-c1cc(=O)c2cc(C)c(C)c(C(=O)O)c2o1 | > 100 µM | –
COc1ccc(-c2c(-c3ccc(OC)cc3)n3c(=O)n(C)c(=O)n23)cc1 | > 100 µM | –
Cc1cc(CCl)c(C)cc1CCl | 3.48 µM | 1.63
CCC(=O)N/S(=N/S(=O)(=O)c1ccccc1)C(Cl)(Cl)Cl (stereo not given) | > 100 µM | –
CCOP(=O)(OCC)/C(C#N)=C/c1ccccn1 | > 100 µM | –
N#CC1=C(N)N(/N=C/c2ccccc2)C(c2ccccc2)C1(C#N)C#N (stereo not given) | 33.1 µM | –
O=C(NN1C(=O)C(Cl)C1c1cccc([N+](=O)[O-])c1)c1ccccc1O (stereo not given) | > 100 µM | –
COc1ccc(C2=[S+]C(c3ccccc3)(c3ccccc3)c3ccccc32)cc1 | > 100 µM | –
O=C(Cn1cc(Br)c(=O)[nH]c1=O)c1ccc(-c2ccccc2)cc1 | > 100 µM | –
N#Cc1c(=O)c2ccccc2n2ccccc12 | > 100 µM | –
O=C(Nc1cccc(F)c1)c1cc2ccc(O)cc2oc1=Nc1cccc(F)c1 | 36.8 µM | –
Cc1nc2ccc(S(=O)(=O)NS(=O)(=O)c3ccc(-c4ccccc4)cc3)cc2c(=O)n1NS(=O)(=O)c1ccc(-c2ccccc2)cc1 | > 100 µM | –

Compound | TGI | GI50 [µM]
CC1=Nc2ccccc2SC(c2c(Cl)cccc2Cl)C1 (stereo not given) | 4.37 µM | –
O=c1[nH]c(SCc2cccc([N+](=O)[O-])c2)nc2nc[nH]c12 | > 100 µM | –
CC(=O)c1cccc(NC(=O)C(=O)c2c(O)c3ccccc3oc2=O)c1 | > 100 µM | –
CC(=O)C(C(=O)c1ccc(C)cc1)[C@H]1OC(C)(C)O[C@H]1[C@H]1COC(C)(C)O1 (stereo not given in full) | 15.7 µM | –
c1cc2c3c(c1)c1cc4c(cc1c[n+]3CC2)OCO4 | 39.9 µM | –
Cn1c(=Nc2ccc(Cl)cc2)sc2ccccc21 | > 100 µM | –
CC(/C=C/C(O)=C1/C(=O)CNC1=O)=C\[C@@H](C)[C@H]1O[C@@]2(C)O[C@H](C(=O)[C@@H]3O[C@@]32C)[C@@H]1C | 33.6 µM | –
CC(O)c1cc2c(s1)C(=O)c1c(C(C)O)csc1C2=O (stereo not given) | 0.354 µM | –
CC(C)=NOC(=O)CNC(=O)C(Cc1ccccc1)NC(=O)C(C)NC(=O)OC(C)(C)C (stereo not given) | > 100 µM | –
O=C(c1ccccc1)N1C(=O)N(c2ccccc2)C(=Nc2ccccc2)C1=Nc1ccccc1 | > 100 µM | –
O=C(CC1(O)C(=O)Nc2ccc(F)cc21)c1ccc(C(=O)NCC2CCC3(CC2)OOC2(CCCCC2)OO3)cc1 (stereo not given) | 40.2 µM | 14.6
Cc1cc(NCc2cc(Nc3ccnc4cc(Cl)ccc34)ccc2F)nc(N2CCOCC2)n1 | 5.63 µM | 1.85
CC(Oc1ccc(Oc2cnc3ccc(Cl)cc3n2)cc1)C(=O)O (stereo not given) | > 100 µM | –
CCCC1(CN2c3ccccc3Sc3ccc(Cl)cc32)CCN(CC)C1 (stereo not given) | 3.48 µM | 1.88
COc1cc(-c2ccc(N=Nc3ccc4c(S(=O)(=O)O)cc(S(=O)(=O)O)c(N)c4c3O)c(OC)c2)ccc1N=Nc1ccc2c(S(=O)(=O)O)cc(S(=O)(=O)O)c(N)c2c1O | > 100 µM | –
C=C1C[C@@H](O)[C@@H](Br)C(C)(C)[C@@]12C=CC(=O)CC2 | > 100 µM | –
C1CCCCC2(CCCCCCCCC3(CCC1)SCCS3)SCCS2 | > 100 µM | –
CCOC(=O)C(=CNc1ccc(N(C2=NCC(C)S2)c2ccc(F)c(Cl)c2)cc1)C(=O)OCC (stereo not given) | 67.4 µM | –
O=C1NC(Nc2ccccc2)=N/C1=C\c1c(Cl)cccc1Cl | 70.9 µM | –
O=C1/C(=C\c2ccc(Br)cc2)CCCc2ccccc21 | 68.2 µM | –
COc1ccc(-c2nc(-c3nc4cc(Cl)c(F)cc4[nH]3)c3ccccn23)cc1 | > 100 µM | 6.87
CCCc1nc(Cl)nc(Cl)c1Cl | 2.97 µM | –
C[N+](C)(C)CC1CCCCC1=O (stereo not given) | > 100 µM | –
Cc1cccc2oc3c(c(=O)c12)CC(O)C(C)(C)O3 (stereo not given) | > 100 µM | –
COC/N=C(\NC#N)NCOC | > 100 µM | –

Compound | TGI | GI50 [µM]
COc1ccc2cc(CNCCCCCCCCNCc3ccc4cc(OC)ccc4c3)ccc2c1 | 44.5 µM | –
O=c1[nH]ncc2[nH]c3c4ccccc4ccc3c12 | > 100 µM | –
CCOC(=O)NC(Nc1cc(Cl)ccc1OC)(C(F)(F)F)C(F)(F)F | > 100 µM | –
c1ccc2c(c1)NCc1cc3ccccc3nc1O2 | > 100 µM | –
CC1(C)OCC(C2OC3OC(C)(C)OC3C2c2ccccc2)O1 (stereo not given) | > 100 µM | –
Clc1ccc(-c2cc(-c3cc4cc(Br)ccc4nc3Cl)on2)cc1 | > 50 µM | –
Oc1ccc(/C=C/c2cccc(/C=C/c3ccc(O)c(O)c3)n2)cc1O | 29.6 µM | –
Nc1c(C(=O)c2cccc(C#CCN3CCCCC3)c2)cnn1-c1ccc(F)cc1 | > 25 µM | > 25
O=C(NN1C(=O)CSC1c1cccc(Cl)c1)C(O)c1ccccc1 (stereo not given) | > 100 µM | > 100
COC(=O)C(C(=O)C(=O)Nc1ccc(C)cc1C)c1csc(-n2nc(-c3ccccc3)cc2-c2ccccc2)n1 (stereo not given) | > 100 µM | –
COc1ccc2oc(S(=O)(=O)N3CC(CCl)c4ccc(N)cc43)cc2c1 (stereo not given) | > 100 µM | –
Nc1nc2ccc(Sc3ccc4nc(N)[nH]c(=O)c4c3)cc2c(=O)[nH]1 | > 100 µM | –
CC1CC2(S(=O)(=O)c3ccccc3)ON1CC2S(=O)(=O)c1ccccc1 (stereo not given) | > 100 µM | –
CCOC(=O)C1Cc2ccc3c4c(ccc(c24)C1)CC(C(=O)OCC)C3 | > 100 µM | –
O=Cc1ccc(OC[C@H]2COC(=O)N2)cc1 | > 100 µM | –
COc1cc(C(=O)N[C@H]2CCc3cc(OC)c(OC)c(OC)c3-c3ccc(SC)c(=O)cc32)cc(OC)c1OC | > 100 µM | –
Clc1ccc2c(NCCCCN3OC3c3ccccc3)ccnc2c1 (stereo not given) | 22.1 µM | –
CCOC(=O)c1cn2c(n1)sc1cc(OC)ccc12 | > 100 µM | –
C=CC(C)(C)n1cc(C2=C(O)C(=O)C(c3cn(C(C)(C)C=C)c4ccccc34)=C(O)C2=O)c2ccccc21 | 16.5 µM | –
CC1(C)CC(=O)c2c(nc3c(ccc4ccccc43)c2-c2ccc(NC(=O)CCC(=O)Nc3ccc(-c4c5c(nc6c4ccc4ccccc46)CC(C)(C)CC5=O)cc3)cc2)C1 | > 100 µM | –
C/C(=N\NC(=O)c1ccc(Cl)cc1)c1nc2ncccc2[nH]1 | > 100 µM | –
CCOC(=O)c1sc2c(c1OC(=O)c1cc(OC)c(OC)c(OC)c1)c(=O)n(-c1ccccc1)c(=S)n2-c1ccccc1 | > 100 µM | –
COc1ccc(C(=O)c2sc3nc(-c4ccccc4OC)ccc3c2N)cc1OC | > 100 µM | 44
CCOC(=O)/C=C/c1c(C)[nH]c(=O)[nH]c1=O | > 250 µM | –
C/C(=C(/c1ccccc1)c1ccc(OCC(O)CNCCN2CCOCC2)cc1)c1ccccc1 (stereo not given) | 10.4 µM | 2.81

Compound | TGI | GI50 [µM]
FC(F)(F)c1ccc(-c2nn3ncccc3c2-c2ccnc(Nc3ccc4c(c3)OCCO4)n2)cc1 | > 25 µM | > 25
C=C1C(=O)O[C@H]2[C@H]1CC/C(COC(=O)NCc1ccc(Cn3c(=O)sn(CCCCC)c3=O)cc1)=C\CC[C@@]1(C)O[C@@H]21 | 22.5 µM | 10.7
Cc1ccc(Cl)cc1N=NC(=O)NNc1cc(Cl)ccc1C | > 100 µM | –
N#CCCN(CCC#N)c1ccc(/C=C2\N=C(c3ccccc3)N(c3ccc(C(=O)O)cc3)C2=O)cc1 | > 100 µM | –
CN(C)CCCOc1cccc(NC2=C(Cl)C(=O)C(Nc3cccc(OCCCN(C)C)c3)=C(Cl)C2=O)c1 | 9.48 µM | 2.78
CCSc1ccc([C@@H]2[C@@H](O)C(=O)N2c2cc(OC)c(OC)c(OC)c2)cc1 | > 100 µM | 0.0806
CC(=O)OC(C(=O)[O][Sn]([CH3])([CH3])[CH3])c1ccccc1 (stereo not given) | > 100 µM | > 100
CCOc1ccc(N=C(NC(=O)c2ccccc2)SC)cc1 | > 100 µM | –
CCCCCCC(O)CC[C@H]1CCC[C@@H](C)N1 (stereo not given in full) | > 31.6 µM | –
CCCCCCNCCCNc1c2cc(OC)ccc2nc2cccc([N+](=O)[O-])c12 | 0.232 µM and 1.16 µM | 0.224
CC(=O)c1ccc(NC(=O)C(=O)C(C(=O)/C=C/c2ccccc2)C2OC(=O)c3ccccc32)cc1 (stereo not given) | > 100 µM | –
O=C(c1cccs1)c1nccc2c1cnc1ccccc12 | > 100 µM | –
CC(=O)C(C)C(=O)N1C(=O)N(C)C2(C)N(C)C(=O)NC12C (stereo not given) | > 100 µM | –
COc1ccc(-c2oc3cc(OC)c(OC)c(O)c3c(=O)c2OC)cc1 | > 100 µM | –
N#[N+]c1c([O-])c2ccccc2c2ccccc12 | > 100 µM | –
COC(=O)C1Cc2c(OC)ccc(OC)c2C(O)C1C(=O)OC (stereo not given) | > 100 µM | –
O=C1c2ccccc2C(=O)C12CCc1ccccc12 | > 100 µM | –
O=c1nc2ccc([N+](=O)[O-])cc2[n+]([O-])[nH]1 | > 100 µM | –
C=C1C(=O)O[C@H]2[C@H]1CC/C(Cn1cc(-c3ccc(N)cc3)nn1)=C\CC[C@@]1(C)O[C@@H]21 | 25.7 µM | 12.6
c1ccc(-c2nc3n(c2-c2ccc4c(c2)OCO4)CCC3)nc1 | > 23.6 µM | 4.69
Cc1ccc(S(=O)(=O)CNC(=O)C(O)(O)C(F)(F)F)cc1 | > 100 µM | –
COC(=O)c1c(CC(Cc2ccc3c(c2)CCCC3)C(=O)O)ccc2c1CCCC2 (stereo not given) | > 100 µM | –
CCCCCCCCC/C=C1/CC(CO)(COC(=O)CC(C(C)C)C(C)C)OC1=O (stereo not given) | 25.3 µM | –
Cc1cccc2[nH]c3c(c(O)cc4[nH]c5cccc(C)c5c(=O)c43)c(=O)c12 | > 10 µM | –
O=C1C[C@@]23CCC4(CC2CCC[C@H]3O1)OCCO4 (stereo not given in full) | > 100 µM | –

From PubChem BioAssay (NCI)
